Out of some 310,000 compounds screened, about 14,000 (4.5%) showed an effect of 50% or more. Effects have a minus sign here. The list shows a part of the results.
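Note: peak tail current of the secondary pulse compared with the same well before compound.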

In the assay the target is human ether-à-go-go-related gene (hERG) potassium channel (human, UniProt Q12809). The experiment in a line: primary screen, population patch clamp on CHO cells stably expressing hERG.
human ether-à-go-go-related gene (hERG) potassium channel, sequence (Q12809 whole entry, looked up): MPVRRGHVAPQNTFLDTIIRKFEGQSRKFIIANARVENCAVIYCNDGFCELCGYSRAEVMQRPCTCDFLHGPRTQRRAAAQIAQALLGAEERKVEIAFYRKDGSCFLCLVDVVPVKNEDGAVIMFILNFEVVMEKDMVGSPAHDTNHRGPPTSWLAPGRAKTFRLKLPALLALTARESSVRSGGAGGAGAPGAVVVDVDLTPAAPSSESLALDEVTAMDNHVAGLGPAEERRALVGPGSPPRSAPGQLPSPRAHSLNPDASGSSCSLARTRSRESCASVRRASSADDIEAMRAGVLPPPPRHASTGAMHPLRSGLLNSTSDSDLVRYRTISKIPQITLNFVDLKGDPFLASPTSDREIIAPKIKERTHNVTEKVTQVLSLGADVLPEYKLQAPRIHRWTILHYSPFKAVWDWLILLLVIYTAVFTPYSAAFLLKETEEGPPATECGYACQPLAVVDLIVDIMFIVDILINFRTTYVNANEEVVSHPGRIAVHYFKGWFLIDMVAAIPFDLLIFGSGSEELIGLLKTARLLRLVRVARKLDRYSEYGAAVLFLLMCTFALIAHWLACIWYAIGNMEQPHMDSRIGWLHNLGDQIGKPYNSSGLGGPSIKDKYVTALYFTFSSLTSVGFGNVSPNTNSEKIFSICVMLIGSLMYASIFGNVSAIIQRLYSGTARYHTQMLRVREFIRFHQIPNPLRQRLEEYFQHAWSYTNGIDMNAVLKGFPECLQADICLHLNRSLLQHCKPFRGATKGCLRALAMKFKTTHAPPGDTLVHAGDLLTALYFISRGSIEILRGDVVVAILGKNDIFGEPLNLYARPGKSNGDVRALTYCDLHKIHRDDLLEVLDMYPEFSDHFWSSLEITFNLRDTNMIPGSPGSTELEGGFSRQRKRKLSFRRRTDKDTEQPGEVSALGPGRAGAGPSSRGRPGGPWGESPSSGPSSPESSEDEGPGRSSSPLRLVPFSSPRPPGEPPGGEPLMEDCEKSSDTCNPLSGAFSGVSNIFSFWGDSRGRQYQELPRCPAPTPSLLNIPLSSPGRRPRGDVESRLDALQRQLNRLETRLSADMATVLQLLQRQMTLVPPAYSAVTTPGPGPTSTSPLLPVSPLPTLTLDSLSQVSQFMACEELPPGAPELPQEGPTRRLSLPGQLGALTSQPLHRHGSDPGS
On to `CCOc1cc2[nH]c(=O)n(Cc3ccc(C(=O)NCCCN4CCC(C)CC4)cc3)c(=O)c2cc1OCC`, for which the “hERG current change (%, negative = inhibition) at 10uM” value is recorded as -15.5%.
As for `N#Cc1ccc(C(=O)Nn2cnnc2)cc1`, the figure is 11.5%.
Turning to `CC(=O)Nc1ccc(S(=O)(=O)N2CCCN(S(=O)(=O)c3ccc(C)cc3)CC2)cc1`, the “hERG current change (%, negative = inhibition) at 10uM” value is on record as -72.8%.
Take `NC(=O)CCC1NC(=S)N(Cc2ccccc2)C1=O` (centres unmarked): the “hERG current change (%, negative = inhibition) at 10uM” value came out at 7.85%.
In the case of `Cc1ccc(NC(=O)CNc2ccc(OC(C)C)cc2)c(C)c1` it was 2.21%; in that of `Cl.NCC(O)c1ccc(O)cc1` (centres unmarked), 1.93%; in that of `Cc1cccc(-n2c(C)nc3cc(C(=O)N4CCOCC4)ccc32)c1`, 13.1%.
As for `CCOC(=O)c1c(NC(=O)Cn2c(=O)oc3ccccc32)oc(C)c1C(C)=O`, the figure is 6.29%; as for `CN(C)CCc1nn[nH]n1`, -0.456%.
As for `O=S(=O)(c1ccc(Oc2ccc(F)c(Cl)c2)nc1)N1CCOCC1`, the figure is -3.58%; as for `CC(=O)Nc1cccc(Oc2ccc(-c3noc(C)n3)cc2)c1`, 6.94%.
With `Cc1nc2cc(C(=O)O)ccc2n1-c1ccc(F)cc1F`, the “hERG current change (%, negative = inhibition) at 10uM” value stood at 8.5%.
In the case of `O=C1NC(=Nc2ccccc2Cl)S/C1=C\c1cc([N+](=O)[O-])ccc1O` it was 5.25%; in that of `COc1ccccc1NC(=O)CN(Cc1ccco1)C(=O)c1cc2ccccc2o1`, -28.7%; in that of `N#C/C(=C\c1cccnc1)c1ccc([N+](=O)[O-])cc1`, -56.3%.
Consider `CCN(CC)C(=O)CSc1nc2cc(S(=O)(=O)N3CCOCC3)ccc2n1CC`, for which the “hERG current change (%, negative = inhibition) at 10uM” value is on record as 5.94%.
In the case of `COc1ccc(NC2=C3CC(C)CC=C3N(c3ccc(OC)cc3)C2=O)cc1` (centres unmarked) it was -2.77%; in that of `N#CCc1nc(CSc2nc3ccccc3s2)cs1`, -2.16%.
`Cc1cccc(NC(=O)CN2C(=O)NC(C)(c3ccc4c(c3)OCO4)C2=O)c1` (centres unmarked): the “hERG current change (%, negative = inhibition) at 10uM” value is -22.7%.
`CN(C(=O)c1nn(C)c2c1CSc1ccccc1-2)c1ccc(F)cc1`: the “hERG current change (%, negative = inhibition) at 10uM” value came to 0.0295%.
Consider `Cc1sc(NC(=O)CCC(=O)O)c(C(N)=O)c1-c1ccccc1`, for which the “hERG current change (%, negative = inhibition) at 10uM” value was found to be 4.38%.
In the case of `Cc1ccc(/C=N/NC(=O)Cc2cccs2)o1` it was 4.51%; in that of `NC(=O)Cn1cc(C(=O)c2cccs2)c2ccccc21`, -2.95%; in that of `CNc1c(NS(=O)(=O)c2ccc3c(c2)CCCC3)c(=O)oc2ccccc12`, 18.3%.
In the case of `Cc1ccc(C(=O)Nc2nnc(COc3ccccc3)s2)cc1` it was 3.6%; in that of `COc1ccc(/C=C(/NC(C)=O)C(=O)O)cc1`, 2.12%.
In the case of `CCOC(=O)N1CCC(NC(=O)CCS(=O)(=O)c2ccc3c(c2)CCN3C(C)=O)CC1`, the “hERG current change (%, negative = inhibition) at 10uM” value amounted to 3.21%.
For `O=C1CCc2cc(S(=O)(=O)NC(Cc3ccccc3)C(=O)N3CCN(c4ccccn4)CC3)ccc2N1` (centres unmarked), the “hERG current change (%, negative = inhibition) at 10uM” value is -3.54%.
In the case of `S=C(Nc1cccnc1)Nc1ccccc1Br` it was 91.1%; in that of `CCOC(=O)C1(Cc2ccccc2C(F)(F)F)CCN(CCCn2cccn2)CC1`, -82.1%.
Consider `O=C(OCc1nc2ccccc2[nH]1)C1CCCCC1`, for which the “hERG current change (%, negative = inhibition) at 10uM” value is given as 2.85%.
In the case of `O=c1[nH]c(=O)n(CCc2ccccc2)c(O)c1/C=N/N1CCOCC1`, the “hERG current change (%, negative = inhibition) at 10uM” value is on record as 7.29%.
As for `CCCCC(=O)Nc1ccc2oc(-c3ccncc3)nc2c1`, the figure is -22.8%; as for `COc1ccc(C(C(=O)NC2CCCC2)N(C(=O)c2snc(-c3ccc(F)cc3)c2N)c2ccc(OC)cc2)cc1` (centres unmarked), -9.51%; as for `Cc1ccc2nc(C)cc(C(=O)OCC(=O)Nc3cccnc3Cl)c2c1`, -15.4%.
In the case of `CCN1CCN(c2ccc(N=Cc3ccc(O)cc3O)cc2)CC1` it was -4.58%; in that of `CC(=O)Nc1ccc(S(=O)(=O)N(C)CC(=O)OCC(=O)NCc2ccco2)cc1`, -6.79%; in that of `CCOc1ccc(S(=O)(=O)N(CC)CC)cc1N`, 19.2%.
In the case of `Cc1cccc2c1OCC/C2=N\NC(=O)COc1ccccc1` it was 16%; in that of `Cc1nc([N+](=O)[O-])c(C(=O)OCc2cccc(Br)c2)n1C`, -22.2%; in that of `O=C(NC1CC2CCCC(C1)N2Cc1ccccc1)c1ccc([N+](=O)[O-])cc1` (centres unmarked), -81%.
As for `CN1C(C(=O)NCc2cccs2)=CC(c2ccc(F)cc2)=NS1(=O)=O`, the “hERG current change (%, negative = inhibition) at 10uM” value is listed as -39.4%.
As for `O=C(Nc1ccc(N2CCCC2=O)cc1)c1cccc(F)c1`, the figure is -11%; as for `COc1cccc(OC)c1C(=O)Nc1ccccc1C(=O)N1CCOCC1`, 5.4%.

The record behind these values is publication PMC4336329 (PLoS ONE, 2015).
